{"source": "PubChem BioAssay (NCI)", "note": "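Grown in 96-well plates, cells were treated for 48 hours with each compound at five concentrations. Insufficient inhibition: endpoint recorded as highest concentration tested. GI50 = concentration required for 50% inhibition of growth. At the TGI there is no net growth.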"}
{"system": "NCI-H322M lung", "test": "NCI-60 cell line screen, 48 h", "units": {"TGI": "µM", "GI50": "µM"}}
{"compound": "Cn1cc2ccccc2c1-c1nc(F)nc(Oc2ccc3c(c2)CC[C@@H]2C3CC[C@@]3(C)C2C[C@H](O)[C@@H]3O)n1", "note": "(some centres undefined)", "TGI": 46.3}
{"compound": "N#CC(C(=O)/C(=N\\NC(N)=O)C(C#N)c1ccccc1)c1ccccc1", "note": "(centres undefined)", "TGI": "> 100"}
{"compound": "CC1C2C=C(O)C(=O)C(C2=O)C1c1ccccc1", "note": "(centres undefined)", "TGI": "> 100"}
{"compound": "COc1cccc(/C=C2\\S/C(=N/Nc3nc(C)c(C)s3)NC2=O)c1O", "TGI": "> 100"}
{"compound": "COc1cccc(Nc2nc3ccccc3c3occc23)c1", "GI50": 2.58, "TGI": 8.92}
{"compound": "Cc1cc(C)c(-c2noc(-c3ccc(Cl)cc3)c2C2=NCCCN2)c(C)c1", "TGI": "> 100"}
{"compound": "OC(CN(CCCl)CCCl)C(O)C(O)C(O)CN(CCCl)CCCl", "note": "(centres undefined)", "TGI": "> 100"}
{"compound": "O=C(NCC1CCCO1)c1ccc(NC2=C(Cl)C(=O)N(Cc3ccccc3)C2=O)cc1", "note": "(centres undefined)", "GI50": 16.1, "TGI": 30.1}
{"compound": "CCNC(=O)Oc1ccc(/C(=C(/C)Cc2ccc(OC)cc2)c2ccc(OCCN(CC)CC)cc2)cc1", "GI50": 2.58, "TGI": 10.8}
{"compound": "CN1CCN(Cc2ccc(NC(=O)c3cncc(C#Cc4cnc(N)c5cccnc45)c3)cc2C(F)(F)F)CC1", "GI50": 0.261, "TGI": "> 50"}
{"compound": "c1ccc(CNCCN(CCNCc2ccccn2)Cc2ccc3ccccc3c2)nc1", "GI50": 1.48, "TGI": 4.04}
{"compound": "COc1cc(C2(c3ncc[nH]3)SSSCC2O)ccc1O", "note": "(centres undefined)", "TGI": "> 100"}
{"compound": "CN(/N=C/c1ccnc2ccccc12)c1c([N+](=O)[O-])cc([N+](=O)[O-])cc1[N+](=O)[O-]", "TGI": "> 100"}
{"compound": "COc1ccc(OC)c(/C=N/N=C(\\N)NO)c1", "TGI": "> 100"}
{"compound": "COc1ccccc1/C=C/C1=NN(c2cccc(S(=O)(=O)O)c2)C2(C1)C(Cl)C(=O)N2c1nc2ccccc2s1", "note": "(centres undefined)", "TGI": "> 100"}
{"compound": "CCOC(=O)c1nc2cc(C(F)(F)F)ccc2nc1Nc1ccc(C(=O)OC)s1", "TGI": "> 100"}
{"compound": "CCCCCCCCCCCCOC1C(CNC(=O)C2OC3OC(C)(C)OC3C2NC(=O)CN2CCN(c3ccc(OC)cc3)CC2)OC2OC(C)(C)OC21", "note": "(centres undefined)", "GI50": 8.83, "TGI": 20.9}
{"compound": "Clc1cccc(-c2nnc(-c3nn(-c4ccccc4)c4nc5ccccc5nc34)o2)c1", "TGI": "> 100"}
{"compound": "CSc1ccc(Nc2cc(=O)[nH]c(=O)[nH]2)cc1", "TGI": "> 100"}
{"compound": "COC(C)(C)/C=C/c1[nH]c2ccccc2c1CC(=O)NCCc1cn(C(c2ccccc2)(c2ccccc2)c2ccccc2)cn1", "TGI": "> 100"}
{"compound": "O=C(/C=C/c1ccccc1)Nc1ccccc1SCCCCl", "TGI": "> 100"}
{"compound": "CC1NC(=O)C2=C1C(=O)NC(=O)C2", "note": "(centres undefined)", "GI50": "> 100", "TGI": "> 100"}
{"compound": "CCN(CC)CCCC(C)Nc1c2cc(OC)cc(C)c2nc2c(C)c(Cl)ccc12", "note": "(centres undefined)", "TGI": 2.93}
{"compound": "CC(C)CC(N)C(=O)Nc1ccc2ccccc2c1", "note": "(centres undefined)", "TGI": "> 100"}
{"compound": "CO[C@H]1CC(O[C@@H]2/C(C)=C/C[C@@H]3C[C@@H](C[C@]4(CC[C@H](C)[C@@H](C5CCCCC5)O4)O3)OC(=O)[C@@H]3C=C(C)/C(=N/O)[C@H]4OC/C(=C\\C=C\\[C@@H]2C)[C@]43O)O[C@@H](C)C1O", "note": "(some centres undefined)", "GI50": 0.851, "TGI": 1.64}
{"compound": "Cc1cccc2sc(-c3ccc(O)cc3)nc12", "TGI": 30.8}
{"compound": "Nc1nc(/C=C\\c2ccccc2)nc(N2CCN(c3ccccc3)CC2)n1", "GI50": 27.4, "TGI": 74.3}
{"compound": "Cc1nc2c(o1)C(=Nc1ccccc1)c1nc(C)oc1C2=Nc1ccccc1", "TGI": 60.6}
{"compound": "CC(C)C(OC(=O)c1ccc(NCC2=CC(=O)C=CC2=O)cc1)C(C)C", "TGI": 60.7}
{"compound": "Cc1c(CCCl)c(N=P(c2ccccc2)(c2ccccc2)c2ccccc2)n2c(nc3ccccc32)c1C#N", "TGI": "> 10"}
{"compound": "O=C(CSCC(=O)N/N=C\\c1cccc([N+](=O)[O-])c1)N/N=C\\c1cccc([N+](=O)[O-])c1", "TGI": "> 100"}
{"compound": "CC(=O)C1=C(O)C=C2Oc3c(C(=O)/C=C/c4cc(Cl)cc(Cl)c4)c(O)c(C)c(O)c3[C@]2(C)C1=O", "GI50": 0.578, "TGI": 2.7}
{"compound": "C=C(C(=O)OC)[C@@H]1C[C@@H](OC(C)=O)C2=C[C@H](C[C@@]3(C)O[C@@H]3C3=CC(C)=C(O3)[C@H]1OC(C)=O)OC2=O", "TGI": "> 100"}
{"compound": "Cc1cccc(C)c1N1C(=O)C(=O)C(c2nc3ccccc3s2)/C(=N\\N)C1=O", "note": "(centres undefined)", "TGI": "> 100"}
{"compound": "O=C1Nc2nccnc2C(=O)N2CCC[C@@H]12", "TGI": "> 100"}
{"compound": "COc1c(-c2ccccc2)nc2ccc(Oc3ccccc3)nn12", "TGI": "> 100"}
{"compound": "CCN(CC)CSc1nc2ccccc2[nH]1", "TGI": "> 100"}
{"compound": "CCc1ccc(COC(=O)C2=C(C)NC(C)=C(C(=O)OCc3ccc(CC)cn3)C2C2=COCCO2)nc1", "TGI": 80.3}
{"compound": "CCc1nc2ccc(N=Nc3c(O)ccc4ccccc34)cc2[nH]1", "TGI": "> 52.5"}
{"compound": "COc1ccc2c(c1)CCCN1CCc3ccccc3C21", "note": "(centres undefined)", "TGI": "> 100"}
{"compound": "COC(=O)c1cc2c3ccccc3n3c2c(n1)-c1[nH]c2ccccc2c(=O)c1C3", "GI50": "> 100", "TGI": "> 100"}
{"compound": "CC1=CC(C)(C)NN1C1=NS(=O)(=O)c2ccccc2N1C", "TGI": "> 100"}
{"compound": "CC(C)COc1nc2c(c(=O)n(C)c(=O)n2C)n1C", "GI50": 17.2, "TGI": "> 100"}
{"compound": "O=C(/C=C\\c1cccc2ccccc12)c1ccc(Cl)cc1Cl", "TGI": "> 100"}
{"compound": "CC1=C(O)c2ccccc2C(=O)C1=O", "TGI": "> 100"}
{"compound": "O=C(O)C1[O][Sb][O]C(C(=O)O)C1O", "note": "(centres undefined)", "GI50": "> 100", "TGI": "> 100"}
{"compound": "CN(CCCNC(=O)c1cn(C)c2c1Cc1ccccc1-2)CCCNC(=O)c1cn(C)c2c1Cc1ccccc1-2", "TGI": 24.4}
{"compound": "O=C(N/N=C/c1cc(Br)cc(Br)c1[O-])c1ccccc1O.O=C(N/N=C/c1cc(Br)cc(Br)c1[O-])c1ccccc1O.[Zn+2]", "TGI": 13.2}
{"compound": "NC1CCC(N(CC(=O)O)CC(=O)O)C(N(CC(=O)O)CC(=O)O)C1", "note": "(centres undefined)", "TGI": "> 100"}
{"compound": "Cc1cc2nc3ccccc3n2c2nc(N)ccc12", "TGI": "> 100"}
{"compound": "Cc1ccc(C)n2c1nc1ccccc12", "TGI": "> 100"}
{"compound": "Oc1c(Cl)cc(Cl)c2ccc(Cn3cc(-c4ccc(C(F)(F)F)cc4)nn3)nc12", "GI50": 12.3, "TGI": 24.8}
{"compound": "Cc1ccc2c(=O)cc(-c3ccc4ccccc4c3)[nH]c2n1", "TGI": "> 100"}
{"compound": "O=C1O[C@H]2[C@H](OC(=O)c3cc(O)c(O)c(O)c3)[C@@H](OC(=O)c3cc(O)c(O)c4c3[C@@H]3C1=CC(=O)C(O)(O)C3(O)O4)[C@H](OC(=O)c1cc(O)c(O)c(O)c1)O[C@@H]2COC(=O)c1cc(O)c(O)c(O)c1", "note": "(some centres undefined)", "TGI": "> 100"}
{"compound": "O=C(CCN1CCCCC1)N1CCc2c([nH]c3ccccc23)C1c1cccnc1", "note": "(centres undefined)", "TGI": "> 100"}
{"compound": "Nc1c(Cl)ncnc1NCCCCCCCCCCCCNc1ncnc(Cl)c1N", "TGI": "> 100"}
{"compound": "O=C(Nc1ccc(Cl)cc1Cl)OC(Cn1cncn1)c1ccc(Cl)cc1Cl", "note": "(centres undefined)", "TGI": 32.2}
{"compound": "O=[N+]([O-])c1cc([N+](=O)[O-])c(Nn2c3ccccc3c3ccccc32)c([N+](=O)[O-])c1", "GI50": 0.312, "TGI": 17.4}
{"compound": "CCOC(=O)NC(Nc1ccc(F)cc1)(C(=O)OCC)C(F)(F)F", "note": "(centres undefined)", "TGI": "> 100"}
{"compound": "CCOC(=O)CC(NC(=O)c1[nH]cnc1/N=N/N(C)C)C(=O)OCC", "note": "(centres undefined)", "TGI": "> 100"}
{"compound": "CCOC(=O)/C(=N/Nc1ccccc1)N1C(=S)C=C(C)NN(C)C1=S", "TGI": "> 100"}
{"compound": "Cc1cc(Nc2cc(N3CCN(C)CC3)nc(/C=C/c3ccccc3)n2)n[nH]1", "GI50": 0.91, "TGI": "> 8.68"}
{"compound": "C/C(=C(\\c1ccc(OCCN2CCCCCC2)cc1)c1ccc(OC(=O)c2ccccc2)cc1)c1ccc(Cl)cc1", "GI50": 5.56, "TGI": 15.6}
{"compound": "O=C1C=CC(=O)c2c(O)c3c(c(O)c21)C[C@H](O)[C@H](O)[C@@H]3O", "TGI": 14}
{"compound": "CC(=O)[C@H]1CCC2[C@@H]3CC=C4C[C@@H]([O-])CC[C@]4(C)C3CC[C@@]21C.CC(=O)[C@H]1CCC2[C@@H]3CC=C4C[C@@H]([O-])CC[C@]4(C)C3CC[C@@]21C.CC(=O)[CH-]C(=O)c1ccccc1.CC(=O)[CH-]C(=O)c1ccccc1.Cl.[Ti+4]", "note": "(some centres undefined)", "GI50": 29.7, "TGI": "> 100"}
{"compound": "Nc1ccccc1C(=O)CCC1C(=O)NC(=S)NC1=O", "TGI": "> 100"}
